According to PubChem BioAssay AID1346428 (National Center for Advancing Translational Sciences (NCATS), 2018):
Hit rate of the full screen: of about 48,000 compounds, about 1,200 (2.5%) were called active. Inconclusive results (about 2%) are left out.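 How the source made its calls: active means activation of at least 60% and not above a set upper limit (about 1 call in 100 departs from these limits); inconclusive means activation of 40% to 60%, or above that upper limit; inactive means activation under 40%.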 Some of the results follow.

These compounds were tested against Probable G-protein coupled receptor 32 (Homo sapiens) (UniProt O75388) (assay: qHTS for Agonists of Human Resolvin D1 Receptor DRV1). Conditions: CHO-K1 GPR32 beta-arrestin PathHunter luminescence, 90 min; at 76.9 µM; active compounds read high; zero percent set by DMSO-only wells.
Outline: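 PathHunter beta-arrestin recruitment in CHO-K1 cells stably expressing ProLink-tagged GPR32. Cells were exposed to compound for 90 min at 37 C, then chemiluminescence was read after 1 h detection at ambient temperature; DMSO served as basal control.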
Further: 0% is about no effect.

Sequence of UniProt O75388 (O75388 whole entry, looked up): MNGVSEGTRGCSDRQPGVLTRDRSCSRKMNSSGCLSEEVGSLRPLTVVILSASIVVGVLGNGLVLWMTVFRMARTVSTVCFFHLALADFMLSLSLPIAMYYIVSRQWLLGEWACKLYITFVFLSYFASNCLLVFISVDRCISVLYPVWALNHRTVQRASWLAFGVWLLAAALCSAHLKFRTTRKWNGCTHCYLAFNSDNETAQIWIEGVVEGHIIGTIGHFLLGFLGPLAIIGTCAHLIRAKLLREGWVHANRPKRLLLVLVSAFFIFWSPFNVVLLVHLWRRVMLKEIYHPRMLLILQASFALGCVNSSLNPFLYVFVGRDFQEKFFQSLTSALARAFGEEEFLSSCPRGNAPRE

Structure (SMILES) | activation
Cc1cccc(NS(=O)(=O)c2ccc3c(c2)[C@H]2C=CC[C@H]2[C@@H](c2ccc(F)cc2)N3)c1 | inactive: -26.4%
COc1ccc(-c2cccc(NS(=O)(=O)c3ccc(C)s3)c2)nn1 | inactive: 2.98%
COCCCNC(=O)c1oc2c(c1C)-c1nn(Cc3ccc(Cl)cc3)cc1CC2 | inactive: -3.99%
Cn1cc(CCC(=O)NCc2ccc(Cl)cc2)c2ccccc21 | inactive: -20.2%
Cc1cc(C)cc(NS(=O)(=O)c2ccc(-n3cccn3)cc2)c1 | inactive: 7.11%
CCOc1cc(CNc2ccc(C(=O)O)cc2)ccc1OCc1ccccc1 | inactive: -0.148%
O=C(O)c1c(-c2ccccc2)oc2ccc(OCc3ccc(Cl)c(Cl)c3)cc12 | inactive: 2.35%
CC1CCC(Nc2ncnc3onc(-c4ccc(F)cc4)c23)CC1 (centres undefined) | inactive: 13.9%
COc1cccc(-n2c(=O)c3c(C)c(C)sc3n(CC(=O)Nc3ccccc3OC)c2=O)c1 | inactive: -15.1%
CCOc1cccc(C(=O)N(Cc2ccc(N(C)C)cc2)CC2CCCO2)c1 (centres undefined) | inactive: -20.4%
CCc1ccc(CNCc2c(C(=O)O)c(C)n(Cc3c(F)cccc3Cl)c2C)cc1 | active: 95%
Cn1c(=O)n(C)c2cc(N3CCOCC3)c(NS(=O)(=O)c3ccc(C(C)(C)C)cc3)cc21 | inactive: -4.29%
Cc1ccccc1CC1C(=O)Nc2ccc(Br)cc21 (centres undefined) | inactive: -26.8%
CC1CCN(S(=O)(=O)c2ccc3c(ccc(=O)n3CC(=O)Nc3ccc(C(C)C)cc3)c2)CC1 | inactive: 8.68%
CCc1ccccc1NC(=O)N1CCC(CN2CCc3ccccc3C2)CC1 | inactive: -23%
Cc1ccc(C(=O)CCC(=O)Nc2ccc(C)cc2C)cc1 | inactive: -5.92%
CCOc1ccc(N(C(=O)c2ccccc2F)S(=O)(=O)c2ccc3c(c2)n(C)c(=O)n3C)cc1 | inactive: -13.4%
CCOC(=O)c1c(-c2ccc(C)cc2)csc1NC(=O)c1cc(-c2ccc(Cl)cc2)on1 | inactive: -3.68%
Cc1ccc(CNC(=O)C2CCCCN2S(=O)(=O)c2ccc(F)cc2)cc1 (centres undefined) | inactive: 29.1%
Cc1ccc(-c2nc(-c3cc4cccc(OCc5ccc(F)cc5)c4oc3=O)no2)cc1 | inactive: 15.2%
Cc1ccc(O)c2ncccc12 | inactive: -40.2%
Cc1ccc(NC(=O)CSc2nc(-c3ccc(C(C)(C)C)cc3)nc3cc(=O)[nH]n23)cc1C | inactive: 1.55%
CSc1ncc(C(=O)Nc2cccc(C)c2C)c(-c2ccccc2)n1 | inactive: -11.1%
COc1ccc(CNC(=O)C2CCN(S(=O)(=O)c3ccc(F)cc3)CC2)cc1 | inactive: -1.47%
COC(=O)c1ccc2c(c1)N(Cc1cc(C)ccc1C)C(=O)c1ccccc1S2 | inactive: -20%
CC(CNC(=O)c1ccc(CSc2nc3ccncc3n2Cc2ccc(F)cc2)cc1)c1ccccc1 (centres undefined) | inactive: -6.06%
CCN1CCc2nc3sc(C(=O)c4ccccc4)c(N)c3cc2C1 | inactive: -14.5%

Structure (SMILES) | activation
CCN(c1ccccc1)S(=O)(=O)c1nnc(NC(=O)C(C)(C)C)s1 | inactive: -0.689%
Cc1nc2nc(NCc3cccc(Cl)c3)[nH]n2c(=O)c1Cc1ccccc1 | inactive: -0.663%
CCOc1ccc2nc(N3CCCC(C(=O)NCCCOC)C3)sc2c1 (centres undefined) | inactive: 5.97%
COC(=O)c1ccc(Cn2c(SCc3ccccc3F)nc3ccncc32)cc1 | inactive: -5.85%
CCOc1ccc(CCNC(=O)Cn2c(=O)c3cccn3c3ccc(F)cc32)cc1OCC | inactive: -20%
COc1ccc(-c2cc3ccc(O)c(CN4CCCC(C)C4)c3oc2=O)cc1 (centres undefined) | inactive: 3.15%
Cc1ccc(Cl)cc1-n1ncc2c(NCc3ccc(F)cc3)ncnc21 | inactive: 26.4%
COc1ccc(OCCn2c(C(C)Oc3ccccc3)nc3ccccc32)cc1 (centres undefined) | inactive: -16.4%
CC1C(=O)Nc2ccc(S(=O)(=O)NCc3ccc(N(C)C)cc3)cc2NC1=O (centres undefined) | inactive: -9.96%
COc1ccc(Cn2c(CCC(=O)Nc3ccc(C)c(C)c3)nc3cccnc32)cc1 | inactive: 37.5%
CCCN(CCC)C(=O)CN1C(=O)CSc2ccc(S(=O)(=O)N3CCC(C)CC3)cc21 | inactive: -9.04%
CC(=O)N1CCc2cc(S(=O)(=O)NC(CC(C)C)C(=O)NCCc3ccc(C)cc3)ccc21 (centres undefined) | inactive: 29.9%
COc1cccc(C(=O)c2cn(CC(=O)Nc3cccc(C(F)(F)F)c3)c3nc(C)ccc3c2=O)c1 | inactive: -7.63%
CCN(CC)S(=O)(=O)c1ccc2c(c1)nc(CN(C)C(=O)Nc1cccc(Cl)c1)n2C | inactive: -3.49%
O=C(Nc1ccc(N2CCN(c3ccc(F)cc3)CC2)c(C(=O)O)c1)c1ccccc1F | inactive: -8.95%
COc1ccc(C)cc1NC(=O)C1CCN(S(=O)(=O)c2ccc3c(c2)CCCN3C(C)=O)CC1 | inactive: 2.55%
CC1=C(C(=O)Nc2cccnc2)C(c2ccccc2)n2nc(SCc3ccccc3Cl)nc2N1 (centres undefined) | inactive: -2.59%
Cc1ccc(CCNC(=O)Cn2ncc3c([nH]c4ccc(C)cc43)c2=O)cc1 | inactive: -4.7%
CCOC(=O)c1ccc(NC(=O)CSc2nc3ccccc3c(=O)n2CCNC(C)=O)cc1 | inactive: -5.41%
CCc1ccc(NC(=O)CN2C(=O)C(c3ccc(F)cc3)=NC2(C)C)cc1 | inactive: -46.7%
CCCCOc1ccc(Cn2c(=O)oc3ccc(C)cc32)cc1 | inactive: -1.52%
COc1ccc(OC)c(NC(=O)CSc2cn(CC(=O)N3CCCCCC3)c3ccccc23)c1 | inactive: -7.13%
Cc1cccc(-c2nnn3c2nc(NCCc2ccc(S(N)(=O)=O)cc2)c2ccccc23)c1 | inactive: -29.1%
CCCN(CCC)CCNC(=O)Cn1cc2c(n1)-c1c(oc(C(=O)N3CCCC3)c1C)CC2 | inactive: -13.6%
O=C(CS(=O)(=O)c1cccc2nsnc12)Nc1ccc(F)cc1 | inactive: -3.12%
CCSc1ncc(Cl)c(C(=O)N(Cc2ccc(N(C)C)cc2)Cc2ccco2)n1 | inactive: -32.5%
COc1ccc(S(=O)(=O)N2CCN(c3ccc(Cl)c(Cl)c3)CC2)c2ccccc12 | inactive: -2.46%
